Source: the supplement of paper PMC3334620
Over roughly 33,000 sequences, “E-score (-0.5 to 0.5)” has its median near -0.036; the highest 2% begin near 0.37. Some of the results follow.

The sequences below were run against T1, Yer064c (UniProt P40041) (assay: PBM E-score (8-mer binding enrichment) (E-score (-0.5 to 0.5)); higher = stronger / more preferred TF binding; most listed sequences are background and not binding sites). Conditions: protein concentration: 200 nM; construct: GST-full length.
T1 sequence: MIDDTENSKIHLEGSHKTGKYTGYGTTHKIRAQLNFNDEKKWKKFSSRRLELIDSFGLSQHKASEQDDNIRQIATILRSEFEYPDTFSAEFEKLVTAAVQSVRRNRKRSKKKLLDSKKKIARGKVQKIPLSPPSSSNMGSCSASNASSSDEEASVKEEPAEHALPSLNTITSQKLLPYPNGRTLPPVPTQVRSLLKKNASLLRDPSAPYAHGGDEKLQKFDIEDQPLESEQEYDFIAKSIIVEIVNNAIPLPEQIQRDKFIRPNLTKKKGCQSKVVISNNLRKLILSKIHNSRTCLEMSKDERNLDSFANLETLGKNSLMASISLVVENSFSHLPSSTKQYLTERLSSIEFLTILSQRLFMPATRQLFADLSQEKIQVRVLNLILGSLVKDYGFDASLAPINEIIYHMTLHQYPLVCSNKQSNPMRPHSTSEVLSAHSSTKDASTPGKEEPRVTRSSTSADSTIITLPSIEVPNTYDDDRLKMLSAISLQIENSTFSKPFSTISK
In short: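 Yeast transcription factors carrying a GST tag, as full-length proteins or DNA-binding domains, were produced by PURExpress in vitro transcription/translation. About 100-200 nM protein was applied to universal all-10-mer Agilent arrays, double-stranded by primer extension on fresh or once-stripped slides. Bound protein was detected with fluorescent anti-GST, and scans were normalised with masliner. The Universal PBM Analysis Suite gave each ungapped eight-base word, pooled with its reverse complement, an E-score, a modified Wilcoxon-Mann-Whitney statistic.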

| Sequence | PBM E-score |
| --- | --- |
| CAGACCCG | 0.0251 |
| ATCAGTAC | 0.116 |
| CAATTCAG | -0.0647 |
| GTCTAAAC | 0.0866 |
| CGATCGAC | -0.0565 |
| ATTCAATA | 0.149 |
| TAGCATGA | 0.2 |
| TTCATCAA | 0.15 |
| TATTCTAA | 0.0714 |
| AGGATAAG | -0.204 |
| CACCTGAG | 0.00816 |
| CGAATATC | -0.26 |
| GCGGCTAA | 0.0963 |
| GACCAGGA | -0.146 |
| TGGGTGAA | 0.0876 |
| ACAGGAAT | 0.0679 |
| TCCCAACA | -0.129 |
| CGCTCAAG | -0.15 |
| CCTCAACA | -0.0193 |
| ACCCAGTC | 0.124 |
| CGAAGCAA | -0.0916 |
| CAGTTCCA | -0.132 |
| CACACTGC | 0.0437 |
| AGTCCTAT | 0.306 |
| GGACTTAA | 0.188 |

| Sequence | PBM E-score |
| --- | --- |
| CGAACCAA | -0.0799 |
| AAAGTTCG | 0.00349 |
| CCCGCGAG | -0.14 |
| AAAATCAC | 0.25 |
| AAGGTGAA | 0.00928 |
| AGTCAAGA | 0.414 |
| GTAGAAAC | -0.119 |
| AACCGTAG | -0.205 |
| ATTTGCTA | -0.0117 |
| AAAATTTT | 0.211 |
| CGAAAAAA | 0.0432 |
| CTTACCTC | -0.0778 |
| ACGCTGCG | -0.196 |
| ATCCCAGC | -0.132 |
| TCAGAGGA | -0.00214 |
| CGCTGCAG | -0.194 |
| CAAGGCCG | 0.00573 |
| AAGTAGTC | 0.415 |
| GATGTTAC | -0.118 |
| AGCCACTC | 0.0575 |
| GGCATAGA | -0.128 |
| CCGTTTCC | -0.336 |
| CGTCCCTC | -0.196 |
| AAGTGGCT | 0.112 |
| GCAGACTA | 0.309 |

| Sequence | PBM E-score |
| --- | --- |
| TAACGTGA | 0.164 |
| CCGAAAGC | -0.118 |
| GGGATGGA | -0.24 |
| CATGTTCG | -0.00751 |
| GCATATCA | -0.133 |
| GCCTTTCC | -0.225 |
| GGAAACCC | -0.212 |
| AAACCAAT | 0.0147 |
| GCGTTAAA | -0.0605 |
| CAACATGA | 0.265 |
| CAGCTAAA | 0.0583 |
| AACGTATT | -0.12 |
| GGGGAGAC | -0.0271 |
| AGCAGTAT | -0.17 |
| CTTCACGC | -0.0498 |
| ATCCACTA | 0.0542 |
| CTCCCGAA | 0.0249 |
| CACAGTGC | -0.0934 |
| AAAATGCA | -0.173 |
| AACTCAGA | 0.164 |
| CCTTTCCG | -0.139 |
| AACGTGAT | 0.242 |
| CCGATTGA | 0.207 |
| CCATGGCG | -0.0642 |
| CCAAAATC | 0.103 |

| Sequence | PBM E-score |
| --- | --- |
| AGACGCCC | -0.154 |
| AAATTTTA | 0.0344 |
| GCGCCACA | -0.278 |
| ATGTGCCA | -0.0092 |
| AATTACAG | 0.145 |
| CCTATCCC | -0.171 |
| CTTAAAGC | -0.115 |
| CCACTGGA | -0.0822 |
| ATCCTGAG | 0.122 |
| TAAAGGGA | 0.0752 |
| AGATACGG | -0.0992 |
| AAGTCCGA | 0.0757 |
| GATATAGC | -0.225 |
| CAATCGAA | 0.0349 |
| CAAGCCCA | -0.154 |
| TAGAGGCA | -0.273 |
| GTTTCTCA | -0.00388 |
| AACTGGTG | -0.138 |
| AAGCTGGA | -0.0528 |
| CACCATCA | -0.126 |
| GGGATGTA | -0.252 |
| AAGAGACC | -0.115 |
| ATCCAATG | -0.0599 |
| CTCATGGA | 0.119 |
| GGGGAAAC | -0.00029 |

| Sequence | PBM E-score |
| --- | --- |
| ACGACCGA | 0.0911 |
| GTATTGAC | 0.153 |
| GACACTCC | 0.0934 |
| CCAGGAGC | -0.315 |
| AAGAGCCA | 0.0756 |
| GACACATC | 0.116 |
| CCTTTTAA | 0.0512 |
| CTGCGATA | 0.0199 |
| GCTTTGTA | 0.0612 |
| ATTGCATG | 0.137 |
| CCCTGCCC | -0.272 |
| CAAGCCGC | -0.258 |
| ACTTTGAG | 0.261 |
| AACGATCC | -0.136 |
| AGTAAATG | 0.108 |
| ACGGTACA | -0.106 |
| CAGTCCTC | 0.14 |
| ATCCCGTC | -0.193 |
| AATGGTCG | -0.147 |
| AAGGGGGT | -0.375 |
| TCATGAGA | 0.288 |
| CATGACGA | 0.0513 |
| CAAAGGAG | -0.0916 |
| AAACGTGT | 0.0909 |
| ATAAAGAG | 0.00873 |

| Sequence | PBM E-score |
| --- | --- |
| GACGGCCA | -0.257 |
| GCGCCGTA | -0.144 |
| CACTGATG | -0.0721 |
| ATAAGTCA | 0.438 |
| ACTTATAA | 0.203 |
| TCTGAGAA | 0.186 |
| CAAGCCCG | -0.274 |
| ATCGCGAG | 0.102 |
| AGTAGCAG | 0.0455 |
| GATTGTAC | -0.113 |
| CCAATACA | -0.0917 |
| GAAGTTAC | 0.0811 |
| ATCATTCG | 0.205 |
| TACCAGCA | -0.0213 |
| CACCATAA | 0.157 |
| GGGAGCAC | -0.227 |
| GTATTTTA | 0.0309 |
| GTCTAGGA | 0.0679 |
| ACCTGTGA | 0.14 |
| AGGTGTGG | -0.184 |
| AGATGGCG | 0.00785 |
| AGAGGCCA | -0.217 |
| GACTCCTC | 0.419 |
| AGTGCGAG | 0.133 |
| CCGGGATC | 0.0126 |

| Sequence | PBM E-score |
| --- | --- |
| TCGTCTAA | 0.136 |
| ATCGTGGG | 0.00635 |
| AGCCCGAT | -0.0209 |
| TGTCCCAA | -0.0394 |
| CGTATCTC | -0.023 |
| ATAGTCTG | 0.177 |
| AGCGGTAA | -0.0162 |
| ACTATACG | 0.297 |
| AGTTAGCA | -0.0881 |
| ATAGGCAC | -0.342 |
| ACAATAGG | -0.0629 |
| ACCAGAGG | -0.0739 |
| AATGCATA | -0.108 |
| AATAAAGA | 0.245 |
| CACAGCCC | -0.152 |
| GTGAAGGA | 0.167 |
| CAAACCGA | 0.0519 |
| ATGAACAC | 0.122 |
| ACGAAAAT | 0.0992 |
| GCAAAGAA | 0.128 |
| AAAAATTT | 0.169 |
| AGGGCAAG | -0.21 |
